This note sets out measurements from the RNAGym collection of RNA variant scans (doi:10.1093/nar/gkz1192).

To fix the notation:
B1: CPEB3 Ribozyme (parent)
chain: UAACAGGGGGCCACAGCAGAAGCGUUCACGUCGCAGCCCCUGUCAGAUUCUGGUGAAUCUGCGAAUUCUGCUGUAUAUCUC

Read counts are not given, so values of variants with three or more changes are uncertain.

Variants of B1 are the subject of the data set. The experiment in a line: self-cleavage, relative activity (ratio to wild type); higher = more cleavage; in vitro, sequencing. In a few lines: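 For each CPEB3 ribozyme variant, relative activity is its cleaved/total read fraction divided by the unmutated ribozyme's. Barcoded error-prone PCR libraries were transcribed by T7 RNA polymerase (5 hours, 37°C) and held in DNase I for 15 min before an EDTA stop, with cleavage occurring throughout. Template-switching reverse transcription and Illumina sequencing were used to read the RNAs. A 5-read minimum applied, and results are the mean of three batches.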
Regarding A45G G53A U60C A65G U67C, the self-cleavage was 0.33. For the variant U43C U49C A57G, the self-cleavage was 0.15. As to U41C A57U C81U, the self-cleavage came to 1.03. In the case of U41C U43C U51A U80C it was 0.4; in that of U41C U51G G52C, 1.11; in that of G42A U49A U51A A75G, 0.09.

Regarding U43C A57G U60C, the self-cleavage is 0.17.

As to A45U A47G C68A, the self-cleavage worked out at 0.14. In the case of A45U U48C U60C it was 0.23; in that of U43C U54G U60C G70A U80A, 0.12. As for U43C U49C U58C U72A, the figure is 0.38. In the case of U41C U60A U72A it was 0.31.

In the case of U43C U49C U58G, the self-cleavage was 0.2. In the case of U43C U49C U58C it was 0.16; in that of A45G U49G U80A, 0.16.

For U43A U54C U69C U80A, the self-cleavage was found to be 0.94. Consider A45U G52A U72C, for which the self-cleavage worked out at 0.28.

With A45G U67C U80A, the self-cleavage came to 0.38.

As to A45G A47G A65G U80C, the self-cleavage is 0.44. Regarding U41C U49C A65U U74A U76C, the self-cleavage was 0.15. As for U41C G53A G61A U78G, the figure is 0.91.

Take U43C A45G U51C: the self-cleavage was 0.2.

Consider U41C A47U U72A U80C, for which the self-cleavage came out at 0.4. On to U41C A47G U48C U49A A56G C68A U74A, for which the self-cleavage was found to be 0.16. For the variant C44U U51A U72C, the self-cleavage was found to be 0.14. Turning to A45G U69A A77U, the self-cleavage amounted to 0.39. As for U41C A64G U69A, the figure is 0.49. U43C A56G U76C: the self-cleavage was found to be 0.32. As for A45G A56G U69A, the figure is 0.37; as for A45U A47G A56G, 0.13; as for U41C U49C U60C G63U C79U, 0.18. For the variant U41A U51A U67A U72C U80C, the self-cleavage amounted to 0.08.

G42A U43A U54A: the self-cleavage was found to be 0.25. In the case of U43C G61C U67C it was 0.09. As for U43A U54C U69C, the figure is 0.51. For U41C U54C U58C, the self-cleavage was found to be 0.49. In the case of A45G G73U U78C U80C it was 1.13; in that of A45G A47U G53A, 0.3. In the case of U41C A45G A57G U60C, the self-cleavage was 1.13.

With U43C U48C U54G A64G, the self-cleavage turned out to be 0.09. A45G A56G A57G U69C: the self-cleavage turned out to be 0.18. Take U43G U54C G61A: the self-cleavage was 0.23. With A45U A56G U72C, the self-cleavage is 0.3. Take U43G A47U U51C A65G: the self-cleavage is 0.15.

For the variant U41C U51A C62U, the self-cleavage came to 0.21. Consider A45G U51A A57U U66C, for which the self-cleavage amounted to 0.09.

In the case of U41A U54G A56G, the self-cleavage is 0.25. As for U43C U48C A57G, the figure is 0.87; as for U41C U54C C62U, 0.12; as for C44U A47U U49A U60C, 0.33.

Take U43C U54G U69A: the self-cleavage was found to be 0.2. Regarding U43C A57C A64U U76C, the self-cleavage came out at 0.1. Consider U43C U49C U72C, for which the self-cleavage stood at 0.27. As for A45U U51C U54A, the figure is 0.65. For the variant A45U U51C U54G, the self-cleavage was 0.2. On to A45G A47U U48C A75C, for which the self-cleavage was 0.19. In the case of A45U U48C U66C U80C it was 0.2. Take U43C U72A A77G: the self-cleavage was 0.77. C44U A45G A47G U48C A64G: the self-cleavage came out at 0.03. For U41C U54A C68A U69A, the self-cleavage was found to be 0.38.

For U43A U51A U74A U80A, the self-cleavage is 1.28. In the case of U41G U60A U80C it was 0.4; in that of U41C U54A U69C U74C, 0.74; in that of U41C U60C U72C, 0.57. On to U41C U54A U66C, for which the self-cleavage was found to be 0.49. For the variant A45G A56G U76C, the self-cleavage amounted to 0.42. For U43A G46C A57G U78C, the self-cleavage came out at 0.14. As for U41C U66C U72C A75G U80A, the figure is 0.

Regarding A45C U48C U78C, the self-cleavage worked out at 0.49. In the case of G42C A45U A64G U66C it was 0.13; in that of A45C U72C C81A, 0.78; in that of U41C A57G C62A U67C, 0.39. As for U41C A47C U80C, the figure is 0.59; as for U43C U72A C79U, 0.51; as for U43A U51C U54C, 1.12. As to U43C U51A U60A C68U U69A, the self-cleavage was determined as 0.14.

With A45G U48C U60C U66C U72G U80A, the self-cleavage came to 0.09. For the variant G42U U60A A65G, the self-cleavage is 0.12.

Regarding U41C U60C A65G, the self-cleavage stood at 0.19. As for U43C C62G A65G, the figure is 0.08; as for U41G U43C U54C U66A U67C U72C, 0.47. As for U43C U54G U80C, the figure is 0.68. On to U43C A47G U58A U80A, for which the self-cleavage stood at 0.08. In the case of A45G U54C A64U U69A it was 0.26; in that of U43C U54C A64G U76C, 0.23.

Turning to A45G U69A C79G, the self-cleavage stood at 0.74. Turning to U41C U69A U76C A77G, the self-cleavage worked out at 0.94.

Regarding U43A U67C A77U, the self-cleavage was 0.22.

U43A G55A A56G: the self-cleavage is 0.94. In the case of U41C U67C U69C U80C it was 0.18; in that of A45U A57C A65G U72A, 0.08; in that of U43C A45U U49A A64G U69A U80C, 0.14. With U41C C50G U67C, the self-cleavage worked out at 0.17. As for U41C U51A A56U, the figure is 0.99. With U43C C50U U54C, the self-cleavage was found to be 0.25. Consider U43C A64G U66C A75U, for which the self-cleavage was determined as 0.1.

U41G A64G U72C: the self-cleavage amounted to 0.09. As for U41A U66C U78C, the self-cleavage worked out at 0.13. In the case of A45C U67C G70A U78C it was 0.14; in that of A45U U69C U78C, 0.36.

As for U41A U66C A75U, the self-cleavage stood at 0.36.

As for G42U U49C C59U, the self-cleavage was 0.2.

In the case of A45U U51A U60C U74C, the self-cleavage was determined as 0.6. Turning to A45C U78C U80A, the self-cleavage was determined as 0.23. As for A45G A47G U58A, the figure is 0.17; as for A45C U49C U60C A65G U69A U80C, 0.14; as for A45G U78C U80A, 1.08.

In the case of U41G U69C U78C, the self-cleavage is 0.05. Regarding G42A G52A U60C C81U, the self-cleavage turned out to be 0.07.

Regarding U41G U60A A77U, the self-cleavage turned out to be 0.28. Regarding U41C A56G A65G U80C, the self-cleavage stood at 0.2. In the case of U43C U58C U66C it was 0.12. In the case of A45C U60A A64U it was 0.19. As for U43C A47G A64G A65G, the figure is 0.17; as for U41C U67A U72G G73C, 0.54. On to U43C A56G A65G A75U, for which the self-cleavage is 0.08.

For U43C G46A U69A, the self-cleavage turned out to be 0.29.

As for U41C U67A A75G, the self-cleavage is 0.32.

With G42A A56G U60C, the self-cleavage stood at 0.46. As for A45U U49C U60A, the figure is 0.42. Turning to A45G A57G U67C U69A, the self-cleavage was 0.33. As for U43C A56G G73C, the self-cleavage is 0.69. As for A45C U49C U72C, the figure is 0.09; as for U41G U54C U58A, 0.09. As for A45G G53A U80A, the figure is 0.97; as for U41A U51C U54A C59U G73U, 0.23. As for U41C U58G U72G A77G, the figure is 0.18.

As to U41A U58C U67C, the self-cleavage turned out to be 0.1. In the case of U43A A64G U80A it was 0.9; in that of A45G U48G U51A U60A, 0.15; in that of G42A C59U U66C, 0.22. Regarding A45G U60C U72A U76A, the self-cleavage came out at 0.98. As for A45U A47U U80C, the figure is 0.22; as for A45U G53A U80G, 0.9.

Take U43A G52U U54A U60C: the self-cleavage was found to be 1.1. For U41C A45U C62U, the self-cleavage stood at 0.21. As for U43A U49C A64U, the figure is 0.35.

For U43C A45U A64U, the self-cleavage was 0.46. Regarding C44U U60C U69C, the self-cleavage came out at 0.49. As for A45U G55A A57G U66C C68U, the self-cleavage was 0.1. As to A45G U60A A75U U78C, the self-cleavage came to 0.45.

With U43G A47G U69G, the self-cleavage amounted to 0.08. On to U41C A77G U80A, for which the self-cleavage was 1.21.

For the variant A45G A47G U72C, the self-cleavage stood at 0.63. Consider A45G A77G U80C, for which the self-cleavage turned out to be 0.65. In the case of U43A U51A A64G it was 0.89. In the case of U43C G55A G63A G73U U78C it was 0.8; in that of U41C C62U A65G, 0.21.

As for G42A A45G A75G, the self-cleavage stood at 0.13. Turning to U41C A47G U60C C71A, the self-cleavage is 0.33.

For U43C U51A C71U, the self-cleavage worked out at 0.61. As to U43A A45C U54C C81A, the self-cleavage was 0.63. Consider A45U G46U A56U U72C, for which the self-cleavage stood at 0.12.

As to A45U U58C U67C, the self-cleavage was found to be 0.17. As to A45G U48C U51A, the self-cleavage came to 0.27. For U43C U51A U58A, the self-cleavage is 0.23. Regarding U41A U60A A65G, the self-cleavage was determined as 0.44.

For G42A U51C U67A, the self-cleavage worked out at 0.18. In the case of U43A A64G U67G U72A it was 0.24; in that of U41C U43C A56G, 0.31; in that of U43C A47G G63A A64U, 0.4. U43A A56G U60C: the self-cleavage was found to be 0.46. In the case of U41C U43C U60C U74A it was 0.46.

In the case of U41A U60C U74C A75G, the self-cleavage is 0.1.

Regarding U43A A45U A64G, the self-cleavage was 0.31. In the case of G42A U54C A56U C62U A64G U69A A77C it was 0.06; in that of U41G U60C A75G U78C, 0.17.
